B1: PhoQ; a variant is named by its letters at X, in order, P23837 (parent)
chain: MKKLLRLFFPLSLRVRFLLATAAVVLVLSLAYGMVALIGYSVSFDKTTFRLLRGESNLFYTLAKWENNKLHVELPENIDKQSPTMTLIYDENGQLLWAQRDVPWLMKMIQPDWLKSNGFHEIEADVNDTSLLLSGDHSIQQQLQEVREDDDDAEMTHSVAVNVYPATSRMPKLTIVVVDTIPVELKSSYMVWSWFIYVLSANLLLVIPLLWVAAWWSLRPIEALAKEVRELEEHNRELLNPATTRELTSLVRNLNRLLKSERERYDKYRTTLTDLTHSLKTPLXXLQXXLRSLRSEKMSVSDAEPVMLEQISRISQQIGYYLHRASMRGGTLLSRELHPVAPLLDNLTSALNKVYQRKGVNISLDISPEISFVGEQNDFVEVMGNVLDNACKYCLEFVEISARQTDEHLYIVVEDDGPGIPLSKREVIFDRGQRVDTLRPGQGVGLAVAREITEQYEGKIVAGESMLGGARMEVIFGRQHSAPKDE

The other results are listed elsewhere or left out.

The assay covers variants of B1. Description: enrichment ratio after two sorts for PhoP signalling (ratio (wild type AVST 3.29)); higher = more functional. The following applies: with PhoP (E. coli).
Consider HCSP, for which the enrichment ratio is ≤ 0.25.
For IMMG, the enrichment ratio was ≤ 0.25.
With IGKK, the enrichment ratio was ≤ 0.25.
For the variant RICW, the enrichment ratio was ≤ 0.25.
Take WRDF: the enrichment ratio was ≤ 0.25.
As to CHCH, the enrichment ratio amounted to 6.79.
On to LSFS, for which the enrichment ratio turned out to be 0.269.
Regarding QHKS, the enrichment ratio was ≤ 0.25.
In the case of FCMG, the enrichment ratio stood at 1.72.
For the variant PTDH, the enrichment ratio was ≤ 0.25.
Regarding QSRI, the enrichment ratio is ≤ 0.25.
For the variant ESRY, the enrichment ratio is ≤ 0.25.
The result for VAEL reads ≤ 0.25; that for SFID, ≤ 0.25; that for HHRI, ≤ 0.25.
With AFWV, the enrichment ratio was ≤ 0.25.
On to HLMH, for which the enrichment ratio is ≤ 0.25.
HNEA: the enrichment ratio is ≤ 0.25.
As for KGFC, the enrichment ratio was ≤ 0.25.
Turning to GHIV, the enrichment ratio was ≤ 0.25.
Regarding PCLK, the enrichment ratio was ≤ 0.25.
As to RDDR, the enrichment ratio was ≤ 0.25.
Consider GHPD, for which the enrichment ratio was ≤ 0.25.
VDCP: the enrichment ratio was ≤ 0.25.
In the case of LHFR, the enrichment ratio is ≤ 0.25.
For FFRL the value was ≤ 0.25; for QTML, ≤ 0.25; for EIED, ≤ 0.25.
As to DTQT, the enrichment ratio was ≤ 0.25.
For IACG, the enrichment ratio is ≤ 0.25.
Regarding GIYN, the enrichment ratio was determined as 0.353.
In the case of ARMQ, the enrichment ratio was ≤ 0.25.
On to FHIK, for which the enrichment ratio is ≤ 0.25.
In the case of DMGM, the enrichment ratio is ≤ 0.25.
Take KQNT: the enrichment ratio is ≤ 0.25.
The result for NWRM reads ≤ 0.25.
Regarding KNPY, the enrichment ratio was ≤ 0.25.
For YCWA, the enrichment ratio was ≤ 0.25.
The result for FPQW reads ≤ 0.25.
As to VYKD, the enrichment ratio was ≤ 0.25.
On to SWEE, for which the enrichment ratio is ≤ 0.25.
On to IIGG, for which the enrichment ratio is ≤ 0.25.
For TGTL, the enrichment ratio came out at 13.5.
Regarding PMRK, the enrichment ratio was ≤ 0.25.
With MQRD, the enrichment ratio is ≤ 0.25.
The result for KANR reads ≤ 0.25.
For the variant KTAS, the enrichment ratio was ≤ 0.25.
As for YHWC, the enrichment ratio was ≤ 0.25.
The result for DQYD reads ≤ 0.25; that for ANFC, ≤ 0.25.
In the case of LHNH, the enrichment ratio is ≤ 0.25.
For IWHC, the enrichment ratio is ≤ 0.25.
For DFIM the value was ≤ 0.25; for VMPM, ≤ 0.25; for QMIT, ≤ 0.25.
Turning to HFKI, the enrichment ratio is ≤ 0.25.
For ISKW the value was ≤ 0.25; for WFAQ, ≤ 0.25.
As to PHIE, the enrichment ratio was ≤ 0.25.
Take PPKH: the enrichment ratio is ≤ 0.25.
On to SKKK, for which the enrichment ratio is ≤ 0.25.
As to RCDP, the enrichment ratio is ≤ 0.25.
Turning to MYYW, the enrichment ratio is ≤ 0.25.
As for RPRD, the enrichment ratio was ≤ 0.25.
For the variant GGSM, the enrichment ratio amounted to 7.14.
On to SRDF, for which the enrichment ratio is ≤ 0.25.
On to IELW, for which the enrichment ratio is ≤ 0.25.
For QQCM the value was ≤ 0.25; for ERVH, ≤ 0.25.
Turning to TFGA, the enrichment ratio is 2.06.
For YTKQ, the enrichment ratio is ≤ 0.25.
For the variant MHPW, the enrichment ratio is ≤ 0.25.
On to GYYL, for which the enrichment ratio was ≤ 0.25.
For LETG the value was ≤ 0.25.
As to MINR, the enrichment ratio was ≤ 0.25.
For the variant LCMC, the enrichment ratio was ≤ 0.25.
As for YMPW, the enrichment ratio was ≤ 0.25.
Consider NIYH, for which the enrichment ratio is ≤ 0.25.
For AEEW the value was ≤ 0.25; for KFDG, ≤ 0.25; for ACSY, 4.44.
For PFPK, the enrichment ratio was ≤ 0.25.
Regarding GLLQ, the enrichment ratio came out at 3.83.
With KYPC, the enrichment ratio is ≤ 0.25.
For the variant TMYW, the enrichment ratio was ≤ 0.25.
Consider NTMY, for which the enrichment ratio is ≤ 0.25.
The result for RIGW reads ≤ 0.25.
On to VVKF, for which the enrichment ratio was ≤ 0.25.
On to MICT, for which the enrichment ratio was ≤ 0.25.
Regarding TFYM, the enrichment ratio is 0.392.
Take DRKT: the enrichment ratio was ≤ 0.25.
For the variant ELCD, the enrichment ratio was ≤ 0.25.
For SCGC, the enrichment ratio is 2.41.
For the variant QSCW, the enrichment ratio was ≤ 0.25.
Consider FKQC, for which the enrichment ratio is ≤ 0.25.
Consider ENMS, for which the enrichment ratio is ≤ 0.25.
Turning to RNLM, the enrichment ratio is ≤ 0.25.
Take FTHT: the enrichment ratio is ≤ 0.25.
With YNHP, the enrichment ratio is ≤ 0.25.
For YKHA the value was ≤ 0.25; for RYMP, ≤ 0.25.
Regarding DVLH, the enrichment ratio was ≤ 0.25.
In the case of GFNF, the enrichment ratio is ≤ 0.25.
The result for HKGM reads ≤ 0.25; that for KVQL, ≤ 0.25.
The result for RDQY reads ≤ 0.25; that for PSCR, ≤ 0.25; that for EWFS, ≤ 0.25.
For the variant KANI, the enrichment ratio is ≤ 0.25.
For LMVE, the enrichment ratio is ≤ 0.25.
Consider PIGF, for which the enrichment ratio was ≤ 0.25.
Regarding RFHY, the enrichment ratio is ≤ 0.25.
SNVN: the enrichment ratio came out at 13.3.
For DLWD the value was ≤ 0.25; for KKRE, ≤ 0.25.
As to NHNE, the enrichment ratio was ≤ 0.25.
Turning to ILVV, the enrichment ratio was ≤ 0.25.
On to PNAQ, for which the enrichment ratio was ≤ 0.25.
Regarding DTER, the enrichment ratio was ≤ 0.25.
As for MMKP, the enrichment ratio is ≤ 0.25.
For MEWG the value was ≤ 0.25; for TQHS, 2.15.
Regarding RDAC, the enrichment ratio is ≤ 0.25.
For LNEA, the enrichment ratio is ≤ 0.25.
The result for GENE reads ≤ 0.25; that for TEHY, 11.4.
Regarding MRHS, the enrichment ratio was ≤ 0.25.
On to FKAH, for which the enrichment ratio is ≤ 0.25.
On to YWTD, for which the enrichment ratio was ≤ 0.25.
In the case of YLKH, the enrichment ratio is ≤ 0.25.
As for DQPA, the enrichment ratio was ≤ 0.25.
On to TTSQ, for which the enrichment ratio was determined as 16.8.
As for SFWN, the enrichment ratio was ≤ 0.25.
With YTWT, the enrichment ratio was ≤ 0.25.
VMWE: the enrichment ratio was ≤ 0.25.
As for KKTC, the enrichment ratio was ≤ 0.25.
Regarding LGLR, the enrichment ratio was ≤ 0.25.
In the case of GQIM, the enrichment ratio was 4.29.
For the variant FDGG, the enrichment ratio was ≤ 0.25.
Regarding AGDW, the enrichment ratio was ≤ 0.25.
Turning to NWTA, the enrichment ratio is ≤ 0.25.
In the case of SMTL, the enrichment ratio amounted to 5.9.
Consider ARAP, for which the enrichment ratio was ≤ 0.25.
For WTIS, the enrichment ratio is ≤ 0.25.
As to GFNC, the enrichment ratio is ≤ 0.25.
Regarding NRWS, the enrichment ratio was ≤ 0.25.
The result for RRYE reads ≤ 0.25.
With YQES, the enrichment ratio is ≤ 0.25.
On to LMGD, for which the enrichment ratio is ≤ 0.25.
With PMGH, the enrichment ratio is ≤ 0.25.
Turning to ASKD, the enrichment ratio is ≤ 0.25.
For YTVR the value was ≤ 0.25; for TSAM, 13.8; for QRMN, ≤ 0.25.
Consider AWQF, for which the enrichment ratio is ≤ 0.25.
Regarding LCIM, the enrichment ratio is ≤ 0.25.
Turning to MSTP, the enrichment ratio was ≤ 0.25.
As to GRQP, the enrichment ratio is ≤ 0.25.
Take NEKD: the enrichment ratio is ≤ 0.25.
For VTQH the value was 0.76; for YWKS, ≤ 0.25.
With YTHS, the enrichment ratio is ≤ 0.25.
As for HFEF, the enrichment ratio is ≤ 0.25.
GGVF: the enrichment ratio is ≤ 0.25.
With KTGS, the enrichment ratio was ≤ 0.25.
The result for SNEM reads ≤ 0.25; that for WHYK, ≤ 0.25; that for MYDN, ≤ 0.25.
Take QTDN: the enrichment ratio was 2.21.
The result for VNFD reads 0.628.
For FGFD the value was ≤ 0.25.
In the case of HYNG, the enrichment ratio is ≤ 0.25.
KVQY: the enrichment ratio is ≤ 0.25.
With TSTC, the enrichment ratio was found to be 17.2.
For the variant VCFH, the enrichment ratio was ≤ 0.25.
For YSGN, the enrichment ratio was ≤ 0.25.
As to DAHT, the enrichment ratio was ≤ 0.25.
Take ISKP: the enrichment ratio is ≤ 0.25.
PKWF: the enrichment ratio was ≤ 0.25.
For GPSM the value was ≤ 0.25; for RGSE, ≤ 0.25; for LDRI, ≤ 0.25.
For FMWQ, the enrichment ratio is ≤ 0.25.
As for DGGA, the enrichment ratio is ≤ 0.25.
As to AYNP, the enrichment ratio is ≤ 0.25.
In the case of MLHR, the enrichment ratio is ≤ 0.25.
The result for LNNK reads ≤ 0.25; that for EFIH, ≤ 0.25; that for RDKG, ≤ 0.25.
With IVSV, the enrichment ratio was ≤ 0.25.
DELE: the enrichment ratio is ≤ 0.25.
Turning to HKLD, the enrichment ratio is ≤ 0.25.
For the variant QQLD, the enrichment ratio was ≤ 0.25.
On to IRIC, for which the enrichment ratio was ≤ 0.25.
With MSYR, the enrichment ratio is ≤ 0.25.

These data come from a collection of fitness landscapes (doi:10.1126/science.1257360).
